# Results reported in the supplement of paper PMC10326071.
# The other results are listed elsewhere or left out. Single values are uncertain, as repeats are few or missing.
# Tests used:
# [1] = test system: SARS-CoV-2 nsp3 SARS-unique domain core (SUD-core, nsp3 residues 413-676); assay: dissociation rate constant koff (BLI); higher = faster dissociation; conditions: 100 µM; 25 °C
# [2] = test system: SARS-CoV-2 nsp3 SARS-unique domain core (SUD-core, nsp3 residues 413-676); assay: apparent dissociation constant Kd (single-concentration BLI fit); higher = weaker binding; conditions: 100 µM; 25 °C
Structure (SMILES),dissociation rate constant koff [1] [s⁻¹],apparent dissociation constant Kd [2] [µM]
C[C@@H]1O[C@@H](Oc2cc(O)c3c(=O)c(O[C@@H]4O[C@@H](C)[C@H](O)[C@@H](O)[C@H]4O)c(-c4ccc(O)cc4)oc3c2)[C@H](O)[C@H](O)[C@H]1O,2.13,1170
CCc1cccc(CC)c1NC(=O)N1Cc2[nH]nc(NC(=O)c3ccc(N4CCN(C)CC4)cc3)c2C1,0.0862,139
COc1cccc2cc(-c3nc(C4CCC(C(=O)O)CC4)n4ncnc(N)c34)[nH]c12 (stereo not drawn),0.236,25.8
N#Cc1cccc(-c2c[nH]c3ncnc(N4CCOCC4)c23)c1,1.39,1230
C=CC(=O)N[C@H]1CCOC[C@H]1Nc1ncc2cc(-c3c(Cl)c(OC)cc(OC)c3Cl)ccc2n1,0.326,2810
COc1ccc(Cl)cc1NC(=O)Nc1cc(C)nc2ccccc12,0.0188,146
Cc1cnc(NC(=O)Nc2cc(Br)c(C)cc2OC[C@@H]2CNCCO2)cn1,12,230
Nc1nccc(=O)[nH]1,0.0126,168
Cc1ccc2c(Nc3cccc(OC(F)(F)F)c3)nccc2c1Nc1ncccc1-c1ncnc2nc[nH]c12,0.0211,137
COc1cccc([C@@H](C)NC(=O)c2ccc(-c3ccncc3)cc2)c1,0.76,1480
CC#CC(=O)N[C@H]1CCCN(c2c(F)cc(C(N)=O)c3[nH]c(C)c(C)c23)C1,0.354,2270
COc1ccc(F)c(F)c1C(=O)c1cnc(NC2CCN(S(C)(=O)=O)CC2)nc1N,0.613,708
O=c1[nH]c(=O)n([C@H]2C[C@H](O)[C@@H](CO)O2)cc1/C=C/Br,0.0139,96.7
COc1ccc(C(OC[C@H]2O[C@@H](n3ccc(NC(=O)c4ccccc4)nc3=O)C[C@@H]2OP(OCCC#N)N(C(C)C)C(C)C)(c2ccccc2)c2ccc(OC)cc2)cc1 (stereo partly drawn),0.173,1020
CN1CCN(c2cnc3c(C4CCN(C(=O)c5ccc(OC(F)(F)F)cc5N)CC4)ncnc3c2)CC1,0.0498,11300
CCNC(=O)[C@H]1O[C@@H](n2cnc3c(N)ncnc32)[C@H](O)[C@@H]1O,0.0141,40.5
C[C@@H](c1ccc(F)cc1)n1nnc2cnc3ccc(-c4ccc5ocnc5c4)cc3c21,0.0332,13600
CCN1CCN(Cc2ccc(C(=O)Nc3ccc(C)c(Oc4ccc5c(c4)CC(=O)N5)c3)cc2C(F)(F)F)CC1,0.0186,29.8
CCN1CCN(Cc2ccc(NC(=O)Nc3ccc(Oc4cc(NC)ncn4)cc3)cc2C(F)(F)F)CC1,0.365,1720
CCCS(=O)(=O)NC1CC(N(C)c2ncnc3[nH]ccc23)C1 (stereo not drawn),0.262,3730
Cc1cn([C@H]2C=C[C@@H](CO)O2)c(=O)[nH]c1=O,0.0437,7690
CCNC(=O)Nc1ccc(-c2nc(N3CCOC[C@@H]3C)c3c(n2)C(C)(C)S(=O)(=O)C3)cc1,0.803,884
CN(C)c1nc2c(ncn2[C@@H]2O[C@H](CO)[C@@H](O)[C@H]2O)c(=O)[nH]1,0.272,3900
CN(C)C(=O)/C(C#N)=C/c1ccc(-c2nc3cnc4[nH]ccc4c3n2C2CCCCC2)o1,0.255,3210
Nc1ncnc2c1C(Nc1ccc(F)cc1)N=N2 (stereo not drawn),0.047,6960

Structure (SMILES),dissociation rate constant koff [1] [s⁻¹],apparent dissociation constant Kd [2] [µM]
CN1CCN(c2ccc(C(=O)Nc3cc(-c4cccc(NS(=O)(=O)c5ccccc5)c4)[nH]n3)cc2)CC1,0.0334,72.5
O=C1NC(=O)C(c2cn(-c3ccccc3)nc2-c2ccc(F)cc2)N1 (stereo not drawn),1.42,1170
Nc1nc(Nc2ccc3c(c2)CC[C@@H](N2CCCC2)CC3)nn1-c1cc2c(nn1)-c1ccccc1CCC2,0.0527,15400
CN1CCN(c2ccc(C(=O)Nc3n[nH]c4ccc(Cc5cc(F)cc(F)c5)cc34)c(NC3CCOCC3)c2)CC1,0.0491,1740
C=CC(=O)Nc1ccc(C(=O)Nc2n[nH]c3c2CN(C(=O)N[C@H](CN(C)C)c2ccccc2)C3(C)C)cc1,0.116,160
Cc1cn([C@H]2C[C@H](O)[C@@H](CO)O2)c(=O)nc1N,0.0191,89.9
COc1ccc(Cl)c(Nc2nc3ccccc3nc2NS(=O)(=O)c2cccc(NC(=O)C(C)(C)N)c2)c1,0.989,1970
C[C@H](Nc1ncnc2nc[nH]c12)c1cc2cccc(Cl)c2c(=O)n1-c1ccccc1,1.26,2110
CCC(C)N1c2ccccc2C(=O)N(C)c2cnc(Nc3ccc(C(=O)N4CCC(N5CCN(C)CC5)CC4)cc3OC)nc21 (stereo not drawn),1.73,1600
O=C(O[C@@H]1Cc2c(O)cc(O)cc2O[C@@H]1c1cc(O)c(=O)c2c(O)c(O)cc([C@H]3Oc4cc(O)cc(O)c4C[C@H]3OC(=O)c3cc(O)c(O)c(O)c3)c2c1)c1cc(O)c(O)c(O)c1,0.00123,2.08
Cn1c(N)nc2c(ncn2[C@@H]2O[C@H](CO)[C@@H](O)[C@H]2O)c1=O,0.0288,571
Cc1cccc(C)c1-n1c(=O)c2cnc(Nc3ccc(N4CCN(C)CC4)cc3)nc2n2c3ccccc3nc12,0.0305,74.3
COc1ncc(-c2ccc3ncc(Cl)c(=O)n3c2)cc1NS(=O)(=O)c1ccc(F)cc1F,0.0941,50.6
N#Cc1c(C2CCNCC2)cc(-c2c(O)cccc2OCC2CC2)nc1N,0.605,1810
CN1CCN(CCOc2cc(OC3CCOCC3)c3c(Nc4c(Cl)ccc5c4OCO5)ncnc3c2)CC1,0.669,464
O=c1[nH]c(=O)n(C2CCCO2)cc1F (stereo not drawn),0.0124,242
N#C[C@H]1[C@H](O)[C@@H](CO)O[C@H]1n1ccc(N)nc1=O,0.0152,34.8
N#Cc1ccnc(Nc2cc(C3CCN(C4COC4)CC3)cc(N3CCC(F)(F)C3)n2)c1,0.0846,3320
Cc1c(-c2ccc(C(N)=O)c3[nH]c4cc(C(C)(C)O)ccc4c23)cccc1-n1cnc2ccccc2c1=O,0.111,4000
CC(C)n1cnc2c(NCc3cccc(C(F)(F)F)c3)ncnc21,0.365,3440
N#CCC1(n2cc(-c3ncnc4[nH]ccc34)cn2)CN(C2CCN(C(=O)c3ccnc(C(F)(F)F)c3F)CC2)C1,0.264,197
CC(C)(C)S(=O)(=O)c1ccc2nccc(Nc3n[nH]c4ccc(F)cc34)c2c1,0.227,1690
COc1cc(N2CCC(N)CC2)ccc1Nc1ncc(Cl)c(-c2c[nH]c3ccccc23)n1,0.0428,74.2
C=CC(=O)Nc1cc2c(Nc3ccc(F)c(Cl)c3)ncnc2cc1C#CC(C)(C)N1CCN(C)CC1,0.0579,63.7
CC(C)n1cnc2c(NCc3nc4c(F)c(F)ccc4[nH]3)nc(N3CCCC[C@H]3CCO)nc21,0.18,466

Structure (SMILES),dissociation rate constant koff [1] [s⁻¹],apparent dissociation constant Kd [2] [µM]
Nc1nnc(Sc2ncc([N+](=O)[O-])s2)s1,0.755,750
C[C@@]1(F)[C@H](O)[C@@H](CO)O[C@H]1n1ccc(=O)[nH]c1=O,0.00717,39.7
Cn1cc(-c2ccc3c(c2)CCN3C(=O)Cc2cccc(C(F)(F)F)c2)c2c(N)ncnc21,0.158,3880
c1coc(CNc2ncnc3nc[nH]c23)c1,0.00931,141
Oc1ccc(/C=C/c2cc(O)cc(O)c2)cc1,0.0046,20.8
COc1cc(OC)c(CCC(=O)c2ccc(O)cc2)c(OC)c1,0.66,7470
Nc1nc2c(ncn2COCCO)c(=O)[nH]1,0.0136,114
CN1CC[C@@H](c2c(O)cc(O)c3c(=O)cc(-c4ccc(C(F)(F)F)cc4Cl)oc23)[C@@H]1CO,0.581,1400
CC(C)N1CCN(Cc2cnc(-c3cc(-c4cccc5[nH]ccc45)cc4[nH]ncc34)o2)CC1,0.0296,26.2
CC(=O)NCC(=O)N1[C@@H]2CC[C@H]1c1ccc(Nc3ncc(C(F)(F)F)c(NC4CCC4)n3)cc12,0.271,1590
CCN(CC)CCOc1ccc(Nc2nc(-c3ccccc3NC(=O)CCN3CCN(C)CC3)nc3ccccc23)cc1,0.927,2030
Cc1c(-c2c(F)cc(C(N)=O)c3[nH]c4c(c23)CC[C@H](C(C)(C)O)C4)cccc1-n1c(=O)c2cccc(F)c2n(C)c1=O,0.114,2450
O=c1c(-c2ccc(O)cc2)coc2cc(O)cc(O)c12,0.243,2120
CN1C(=O)[C@@H](NC(=O)c2cc(Cc3ccccc3)on2)COc2ccccc21,0.0856,9.71
NCC(=O)NS(=O)(=O)OC[C@H]1O[C@@H](n2cnc3c(N)ncnc32)[C@H](O)[C@@H]1O,0.0107,38.2
O=c1ccoc2cc(O)ccc12,0.0395,31100
O=C(O)c1cccc(CN2C(=O)/C(=C(\c3ccccc3)c3ccc(Cl)cc3)c3ccccc32)c1,0.123,6660
NC(=O)Nc1cc(-c2cccc(F)c2)sc1C(=O)N[C@H]1CCCNC1,0.232,163
C/C(=N\NC(=O)c1ccc(C)c(Br)c1)c1ccc(O)cc1O,4.1e-06,0.0217
CC(C)(O)CC(=O)NCCn1ccc2ncnc(Nc3ccc(Oc4cccc(C(F)(F)F)c4)c(Cl)c3)c21,0.0863,3020
C[C@@H]1O[C@@H](O[C@H]2[C@H](O[C@H]3CC[C@]4(C)[C@H]5CC=C6[C@@H]7CC(C)(C)CC[C@]7(C(=O)O)CC[C@@]6(C)[C@]5(C)CC[C@H]4C3(C)C)OC[C@H](O[C@@H]3O[C@H](CO)[C@@H](O)[C@H](O)[C@H]3O)[C@@H]2O)[C@H](O)[C@H](O)[C@H]1O,0.413,3220
C[C@@]1(O)[C@H](O)[C@@H](CO)O[C@H]1n1ccc(N)nc1=O,0.0351,330
Cc1ccc(C(=O)Nc2cccc(C(F)(F)F)c2)cc1-c1ccc2nc(NCCN3CCOCC3)ncc2c1,0.0204,6280
NC(=O)c1c(OCc2c(F)cc(Br)cc2F)nsc1NC(=O)NCCCCN1CCCC1,0.329,3440
